{
  "source": "PubChem BioAssay AID485294",
  "about": "(National Center for Advancing Translational Sciences (NCATS), 2010)",
  "note": "The whole screen tested about 370,000 compounds, of which about 150 (0.041%) were called active. Inconclusive results, whose numbers are uncertain, are shown with a selection of clear calls. Calls follow the shape of the dose curve; as a rule, active = well fitted inhibition curve with a large enough effect; inconclusive = small, poorly fitted or top-dose-only effect; inactive = flat fitted curve, though single readings scatter. No potency is given beside an inconclusive call; the fits are too rough. Potency is read from the fitted curve at half-maximal effect; tags tell the direction and shape of the fitted curve.",
  "data": [
    {"molecular_target": "Beta-lactamase (Escherichia coli (strain K12)) (UniProt P00811)", "sequence (P00811 whole entry, looked up)": "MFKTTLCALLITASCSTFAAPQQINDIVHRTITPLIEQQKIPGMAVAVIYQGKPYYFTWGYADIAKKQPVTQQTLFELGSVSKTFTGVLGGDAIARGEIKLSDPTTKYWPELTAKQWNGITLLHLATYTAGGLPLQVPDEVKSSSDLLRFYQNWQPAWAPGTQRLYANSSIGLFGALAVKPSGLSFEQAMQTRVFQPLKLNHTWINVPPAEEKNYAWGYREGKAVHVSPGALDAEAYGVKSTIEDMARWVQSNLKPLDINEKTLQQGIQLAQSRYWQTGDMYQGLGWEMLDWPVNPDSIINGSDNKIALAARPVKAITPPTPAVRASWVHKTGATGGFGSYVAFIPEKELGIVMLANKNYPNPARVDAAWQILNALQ", "experiment": "qHTS Inhibitors of AmpC Beta-Lactamase (assay with detergent); also: nearly all actives have a fitted effect of over 25% in size;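 as to activity change, negative = inhibition: 0% = no-compound wells and -100% = no-enzyme wells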", "details": "AmpC hydrolysis of nitrocefin, absorbance 480 nm, 0.01% Triton; activity change, negative = inhibition: at 114 µM (top of the series)", "in_short": "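AmpC (5.3 nM in the dispensed reagent) in 20 mM phosphate pH 7.0 with 0.01% (detergent screen) or 0.0001% Triton X-100 was preincubated with compounds for 15 min at room temperature. Nitrocefin was then added from an 800 uM solution, and hydrolysis was followed at 480 nm.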", "values": [
      {"smiles": "Cc1cccc(OCC(=O)Nc2ccccc2N2CCN(C)CC2)c1", "Potency": "inconclusive [inhibitor, full curve]"},
      {"smiles": "Cc1nc2c(-c3ccccc3)c(C)[nH]n2c(=O)c1Cc1ccccc1", "activity change, negative = inhibition": "inactive: -0.963%"},
      {"smiles": "Cn1nc(CC(=O)N2CCN(c3ccccc3)CC2)c2ccccc2c1=O", "Potency": "inconclusive [inhibitor, full curve, poor fit]"},
      {"smiles": "O=C(O)CCCC(=O)Nc1ccc(Br)cc1", "Potency": "inconclusive [inhibitor, partial curve]"},
      {"smiles": "O=C(Nc1ccnn1C1CCN(C/C=C/c2ccccc2)CC1)c1cccc(F)c1", "Potency": "inconclusive [inhibitor, single point]"},
      {"smiles": "CC(=O)c1ccccc1NC(=O)CSc1nnc2ccccn12", "Potency": "inconclusive [inhibitor, full curve, poor fit]"},
      {"smiles": "COc1ccc(Cl)cc1NC(=O)CCS(=O)(=O)c1cccc2nonc12", "activity change, negative = inhibition": "inactive: -2.31%"},
      {"smiles": "O=C(COc1ccc2ccccc2c1)N1CCN(c2ccccc2O)CC1", "Potency": "inconclusive [inhibitor, full curve]"},
      {"smiles": "O=C(c1cccs1)N1CCOCC1", "Potency": "inconclusive [inhibitor, partial curve, poor fit]"},
      {"smiles": "COc1ccc(/C=N/NC(=O)c2cccc(NC(=O)c3ccc(Cl)cc3)c2)c(OC)c1", "Potency": "inconclusive [inhibitor, full curve]"},
      {"smiles": "Cc1c(NS(=O)(=O)c2ccc3c(c2)n(C)c(=O)n3C)c(=O)n(-c2ccccc2)n1C", "Potency": "inconclusive [inhibitor, partial curve]"},
      {"smiles": "CC(=O)c1ccc(N2CCN(C(=O)C3CCCN3S(=O)(=O)c3cccc4nsnc34)CC2)cc1", "note": "(stereo not given)", "activity change, negative = inhibition": "inactive: 0.147%"},
      {"smiles": "COc1ccc(CNC(=O)CCCN2C(=O)CSc3c2c(C)nn3-c2ccccc2)c(OC)c1", "activity change, negative = inhibition": "inactive: -1.7%"},
      {"smiles": "O=S(=O)(NCc1cc(-c2ccccc2)no1)c1ccccc1Cl", "Potency": "inconclusive [inhibitor, single point]"},
      {"smiles": "O=C(NCCc1ccc(Cl)cc1)C1CCN(S(=O)(=O)c2ccc(Br)s2)CC1", "activity change, negative = inhibition": "inactive: -14.3%"},
      {"smiles": "COC(=O)C1C2C=CC(C3CC23)C1C(=O)OCC(=O)c1ccccc1", "note": "(stereo not given)", "Potency": "inconclusive [inhibitor, full curve, poor fit]"},
      {"smiles": "CSCCC(NC(=O)c1cccc(S(=O)(=O)N2CCOCC2)c1)c1nc2ccccc2[nH]1", "note": "(stereo not given)", "activity change, negative = inhibition": "inactive: 0.849%"},
      {"smiles": "C/C(=N\\NC(=O)C1COc2ccccc2O1)c1ccc(C)o1", "note": "(stereo not given)", "Potency": "inconclusive [inhibitor, full curve, poor fit]"},
      {"smiles": "COCCn1c(C)cc(C(=O)CSc2nc(C)cc(C)c2C#N)c1C", "Potency": "inconclusive [inhibitor, full curve, poor fit]"},
      {"smiles": "CCOc1cccc(N)c1", "activity change, negative = inhibition": "inactive: -4.78%"},
      {"smiles": "CN(C)c1cc2c(cc1NS(=O)(=O)c1ccccc1)n(C)c(=O)n2C", "Potency": "inconclusive [inhibitor, full curve, poor fit]"},
      {"smiles": "COc1ccc(CNC(=O)c2cc3c(=O)n4ccccc4nc3n(CC3CCCO3)c2=N)cc1", "note": "(stereo not given)", "Potency": "inconclusive [inhibitor, full curve, poor fit]"},
      {"smiles": "Cn1c(CNC(=O)c2ccccc2F)nnc1SCC(=O)Nc1nnc(C2CC2)s1", "activity change, negative = inhibition": "inactive: 5.19%"},
      {"smiles": "O=CN1Cc2[nH]c3ccccc3c2N(c2ccc(Cl)cc2)C1=O", "Potency": "inconclusive [inhibitor, partial curve, poor fit]"},
      {"smiles": "COc1ccc(S(=O)(=O)N2CC(C)N(S(=O)(=O)c3ccc(OC)cc3)CC2C)cc1", "note": "(stereo not given)", "Potency": "inconclusive [inhibitor, partial curve, poor fit]"},
      {"smiles": "Cc1cc(-c2ccc(Cl)cc2)n2nc(C)cc2n1", "Potency": "inconclusive [inhibitor, full curve, poor fit]"},
      {"smiles": "COC(=O)[C@@]1(Cc2ccc(F)cc2)[C@H]2c3cc(C(=O)N4CCCC4)n(CCc4ccc(O)c(O)c4)c3C[C@H]2CN1C(=O)c1ccccc1", "Potency": "inconclusive [inhibitor, full curve, poor fit]"},
      {"smiles": "CC(C)(C)c1ccc(-c2nnc(SCC(=O)O)n2N)cc1", "Potency": "inconclusive [inhibitor, full curve]"},
      {"smiles": "CCOC(=O)C(CC)Sc1nc(N)c(NC(=O)c2ccc(OC)c(OC)c2)c(=O)[nH]1", "note": "(stereo not given)", "Potency": "inconclusive [inhibitor, full curve, poor fit]"},
      {"smiles": "CC(=O)c1cc(-c2ccccc2)n(CC(=O)NC(C)(C)C)c1C", "activity change, negative = inhibition": "inactive: -6.58%"},
      {"smiles": "CCOc1ccc(N(CC(=O)NC2CCCC2)S(=O)(=O)c2c(C)[nH]c(=O)[nH]c2=O)cc1", "Potency": "inconclusive [inhibitor, full curve, poor fit]"},
      {"smiles": "C/C(=N\\N1C(=O)CSC1=S)c1ccc(Br)cc1", "Potency": "inconclusive [inhibitor, partial curve]"},
      {"smiles": "CC1(c2ccccc2Cl)NC(=O)N(CC(=O)N2CCN(S(=O)(=O)c3ccccc3)CC2)C1=O", "note": "(stereo not given)", "Potency": "inconclusive [inhibitor, full curve, poor fit]"},
      {"smiles": "C[C@H]1C(=O)O[C@@H]2CCN3CC=C(COC(=O)[C@](C)(O)[C@]1(C)O)[C@H]23", "Potency": "inconclusive [inhibitor, full curve, poor fit]"},
      {"smiles": "Cc1ccc(C)c(S(=O)(=O)NCCCn2ccnc2)c1", "Potency": "inconclusive [inhibitor, partial curve, poor fit]"},
      {"smiles": "C=CCOc1ccc(/C=N/NC(=O)CC(=O)NC2CCCCC2)cc1", "Potency": "inconclusive [inhibitor, full curve, poor fit]"},
      {"smiles": "COc1cc2c(cc1OC)C1O[C@](c3ccsc3)(C2)OC2=C1C(=O)OC1(CCCCC1)C2", "activity change, negative = inhibition": "inactive: -6.72% [at 22.9 µM]"},
      {"smiles": "CCN(Cc1ccccc1)C(=O)Cn1c(=O)n(-c2ccc(OC)cc2OC)c(=O)c2c(C)c(C)sc21", "Potency": "inconclusive [inhibitor, partial curve]"},
      {"smiles": "CCN1CCN(c2ccc(S(=O)(=O)N3CCCCC3)cc2NC(=O)C(C)Oc2ccc(F)cc2)CC1", "note": "(stereo not given)", "activity change, negative = inhibition": "inactive: -2.9%"},
      {"smiles": "CCCCn1c(N)c(N(CCOC)C(=O)c2sc3cc(F)ccc3c2Cl)c(=O)[nH]c1=O", "Potency": "inconclusive [inhibitor, full curve, poor fit]"}
    ]}
  ]
}
